The subject of the series is ATP. In words: switch fluorescence ratio, 500 uM ATP over buffer (Cy3 cluster intensity, sum of 5 cycles each) (fold (ratio)); higher = stronger signal-on switching upon ATP binding; sequences stand for … in TCGTCGGCAGCGTCAGATGTGTATAAGAGACAGTTTTTTTTTTTTTTTTTTTTTTTTT…TC. As to conditions: aptamer strand: ATP DNA aptamer (quencher-CACCTGGGGGAGTATTGCGGAGGAAGG + anchor), 100 nM annealed; ATP concentration: 500 uM; one replicate. A digest of the protocol: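 Five buffer/ATP imaging cycles were run on Cy3-labelled switching-strand clusters on a modified Illumina MiSeq flow-cell, with NaOH stripping and re-annealing between cycles. In each cycle, clusters annealed to 100 nM quencher-labelled ATP aptamer were imaged in selection buffer, then after 15 min with 500 uM ATP at 22 °C. Per cluster, the fluorescence ratio is summed target-cycle over summed buffer-cycle Cy3 intensity, averaged per switch-domain sequence. Only clusters within 100-1000 RFU were kept.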

Sequences with one replicate were seen in a single cluster, so their values are uncertain.

Here are results for 79 sequences from the supplement of paper PMC10126150.
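Further: ATP exposure 15 min at 22 °C before imaging.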

Consider TGTCGTTTAT, for which the switch fluorescence ratio was found to be 1.01.

AGGGCTGTCG: the switch fluorescence ratio came to 1.03.

Consider CCAAGGTTTG, for which the switch fluorescence ratio was determined as 0.927.

On to GTTGAGGAAT, for which the switch fluorescence ratio came out at 0.977.

With AATTCCGGAT, the switch fluorescence ratio was determined as 0.983.

With AACGCGCCTT, the switch fluorescence ratio worked out at 1.02.

CGACGTTGTA: the switch fluorescence ratio came to 1.24.

GCATGCGGGC: the switch fluorescence ratio came out at 1.02.

Regarding ACAACTCGCC, the switch fluorescence ratio was found to be 1.1.

Consider CGTTTGAACC, for which the switch fluorescence ratio was determined as 1.03.

Regarding TGTGACAA, the switch fluorescence ratio was 1.11.

Consider GGATAAGTGA, for which the switch fluorescence ratio amounted to 0.975.

TAAGAAGTTG: the switch fluorescence ratio was 0.989.

Consider AGGACTCCGG, for which the switch fluorescence ratio worked out at 0.999.

Take CGCTGTTGAG: the switch fluorescence ratio was 0.98.

For TTAAATTAGA, the switch fluorescence ratio came to 0.941.

With AAGAATCCCG, the switch fluorescence ratio is 1.03.

TTAGTTCACC: the switch fluorescence ratio was 1.03.

On to AGAAGATTAC, for which the switch fluorescence ratio came out at 1.06.

On to ACAAATAGT, for which the switch fluorescence ratio worked out at 0.966.

On to TATATAGCAG, for which the switch fluorescence ratio was 1.01.

In the case of GGTGATGCCG, the switch fluorescence ratio stood at 0.971.

Take AGCGCCTGCG: the switch fluorescence ratio is 0.992.

Turning to ACAATATACT, the switch fluorescence ratio turned out to be 1.11.

On to GTCCGTGGCC, for which the switch fluorescence ratio is 1.05.

With CGTACCTGGG, the switch fluorescence ratio worked out at 1.03.

Consider GAGGCTGCA, for which the switch fluorescence ratio is 1.08.

For the sequence GACGAAAGGT, the switch fluorescence ratio is 1.02.

TTGATGCTCG: the switch fluorescence ratio amounted to 1.04.

For the sequence TGGGCCGATT, the switch fluorescence ratio was 0.994.

Turning to TACGATGTGA, the switch fluorescence ratio is 0.99.

Take GCATGCGGCG: the switch fluorescence ratio was 1.01.

For ATAAGGCACG, the switch fluorescence ratio was determined as 1.12.

In the case of TGCGTACTTG, the switch fluorescence ratio was 0.952.

As to CGCCCGTGTG, the switch fluorescence ratio came out at 1.33.

Take TCATCTCCAC: the switch fluorescence ratio amounted to 1.02.

As for ACGCTTTACA, the switch fluorescence ratio is 1.27.

Take TCCCGGCCAA: the switch fluorescence ratio stood at 1.2.

For CCGCGCCGGC, the switch fluorescence ratio is 1.12.

In the case of ATAGATACAG, the switch fluorescence ratio was found to be 0.985.

In the case of TATAAAACCA, the switch fluorescence ratio came out at 0.999.

As for TGCACGTGCT, the switch fluorescence ratio came out at 1.03.

Turning to GCAATAGGAC, the switch fluorescence ratio came out at 3.45.

With TTGGATCCTG, the switch fluorescence ratio was determined as 1.01.

In the case of GCGGCTGTAC, the switch fluorescence ratio turned out to be 2.44.

With GGATATTCGA, the switch fluorescence ratio was found to be 1.02.

As for GTGGCATTAT, the switch fluorescence ratio is 1.07.

For ACTTTTTGGA, the switch fluorescence ratio worked out at 1.01.

Turning to AAAATGGGAT, the switch fluorescence ratio is 0.98.

With TGGGCTCAAT, the switch fluorescence ratio turned out to be 1.

Consider CTGCTAAACG, for which the switch fluorescence ratio was 1.

In the case of CTTGCCATGG, the switch fluorescence ratio turned out to be 1.04.

Turning to AAAACGGCGC, the switch fluorescence ratio came out at 1.01.

GGGAGTACCT: the switch fluorescence ratio worked out at 1.02.

ACAGGTAGCG: the switch fluorescence ratio stood at 1.05.

For CTGGCAACCC, the switch fluorescence ratio was found to be 1.25.

Turning to ACGTCTAGGG, the switch fluorescence ratio was determined as 1.02.

For AGTTTCGTGG, the switch fluorescence ratio worked out at 1.03.

Turning to TATTCCTATT, the switch fluorescence ratio came out at 0.994.

Take TTAGTGGAGT: the switch fluorescence ratio was 0.953.

As for ATCCGGATTG, the switch fluorescence ratio was determined as 0.989.

Consider CGCGTATCAA, for which the switch fluorescence ratio is 0.998.

Regarding GCTCGGTGGA, the switch fluorescence ratio came to 0.984.

Take TTATAAATAA: the switch fluorescence ratio came to 1.03.

Regarding ATTAGATATC, the switch fluorescence ratio worked out at 0.972.

Regarding AAAATTCAAT, the switch fluorescence ratio amounted to 1.

As to GCAGCGAAAT, the switch fluorescence ratio was 1.07.

With AAGCCGGCCC, the switch fluorescence ratio amounted to 0.996.

Turning to GCATAAAGAG, the switch fluorescence ratio stood at 1.01.

Consider CCACCAGTCT, for which the switch fluorescence ratio is 1.16.

With GGGCGAAGG, the switch fluorescence ratio is 1.

Turning to GTAAGAAGAT, the switch fluorescence ratio turned out to be 0.971.

Turning to CTGTGGGTT, the switch fluorescence ratio came out at 0.998.

On to TATTAGGACT, for which the switch fluorescence ratio was 1.01.

Consider GGGCGCTGTT, for which the switch fluorescence ratio is 0.962.

Take TGCATCTGGA: the switch fluorescence ratio is 1.04.

Regarding CCAACCATCT, the switch fluorescence ratio is 1.03.

In the case of TGCGCATTTT, the switch fluorescence ratio worked out at 1.56.

As to ATAGTAAAAT, the switch fluorescence ratio came out at 1.02.
